According to ChEMBL document CHEMBL4888484, “Replenishing the malaria drug discovery pipeline: Screening and hit evaluation of the MMV Hit Generation Library 1 (HGL1) against asexual blood stage Plasmodium falciparum ,using a nano luciferase reporter read-out” (2022):
Screen size: about 150,000 compounds; about 540 (0.36%) showed an effect of 50% or more. This is one part of the list.

What follows are molecules tested on Plasmodium falciparum (assay: Primary screen in NF54 nanoGlo assay, in single point, at 2uM, 72h; a lower Z score goes with more inhibition). Details: timepoint 72 hour.
Assay type: functional, Erythrocyte

| SMILES | % Inhibition | Z score |
| --- | --- | --- |
| Cc1nc(O)cc(CCn2cc(-c3cncnc3)nn2)n1 | -10% | 1.96 |
| COc1ccccc1-n1cc(C(=O)NCC(=O)N2CCN(c3cccc(Cl)c3)CC2)c2ccccc2c1=O | 0% | -0.03 |
| O=C(Nc1ccn(C2CCCCC2)n1)N1CCC[C@@](O)(CO)C1 | -11% | 1.92 |
| COc1cc2c(cc1OC)CN(C(=O)c1c(C)cnn1-c1ccccc1)CC2 | -10% | 1.38 |
| N#Cc1cccnc1N[C@H]1CCN(Cc2ccccc2)C1 | -12% | 1.07 |
| CN(C)c1nc(N2CCC(C(=O)N3CCCC3)CC2)cc(C(F)(F)F)n1 | 6% | -1 |
| COC(=O)c1ccc(C)c(NC(=O)c2cn(C)cn2)c1O | -2% | 0.17 |
| CCN(C(=O)Nc1ccc(-c2ccco2)cc1)C1CCOCC1 | -2% | 0.23 |
| Cc1ccc(-n2nc3c(N4CCC(C(=O)N[C@H]5CCCc6ccccc65)CC4)nnc(C)c3c2C)cc1 | 13% | -1.51 |
| Cc1ncoc1C(=O)N1CCCCC[C@@H]1CC(=O)c1ccccc1 | -7% | 0.96 |
| CC(=O)Nc1ccc(CNC[C@H]2Cn3cc(-c4ccccc4)nc3CO2)cc1 | -10% | 1.57 |
| CC1CN(C2CCN(C3CC4CCC3C4)CC2)CC(C)O1 (stereo not drawn) | 7% | -0.98 |
| O=C(NCC(F)(F)F)N1CCCC[C@H]1c1nc(-c2ccccc2)c[nH]1 | -6% | 0.65 |
| O=C1NCCCCCN(C(=O)c2nccc3ccccc23)[C@H]2CCC[C@@H]12 | -3% | 0.43 |
| Cc1ccc(F)c(Cc2noc([C@@H]3CCCN(C)C3=O)n2)c1 | -18% | 2.81 |
| CS(=O)(=O)N1CC(CS(=O)(=O)N[C@H]2CCCC(F)(F)C2)C1 | -9% | 1.49 |
| Cc1ccc(C2CC(C)CCN2C(=O)CC(O)C(C)C)o1 (stereo not drawn) | -8% | 0.84 |
| Cc1ccncc1C(=O)N1CC[C@H](CCOc2ccccc2)C1 | -15% | 2.85 |
| CCCN(C(=O)c1c[nH]c(C)cc1=O)C1CC(OCC)C12CCCC2 (stereo not drawn) | -2% | 0.17 |
| CC(C)(C)OC(=O)NCCOCCNC1CCCC1c1ccccc1 (stereo not drawn) | -3% | 0.24 |
| CN(C)S(=O)(=O)c1ccc(C(=O)NC[C@H]2CCCN2c2nccs2)cc1 | -14% | 2.69 |

| SMILES | % Inhibition | Z score |
| --- | --- | --- |
| C#CCN1CCC(C(=O)N(C)c2cc(-c3ccccc3)[nH]n2)CC1 | -3% | 0.44 |
| Cc1cc(C)cc(C(=O)N2CC(n3cnc4c(N)nc(N)nc43)C2)c1 | -3% | 0.39 |
| COCCn1ccc2ccn(Cc3ccccc3F)c(=O)c21 | -6% | 0.95 |
| CN(CC(C)(CO)CO)C(=O)c1ccc2ccc(Cl)cc2n1 | -6% | 0.57 |
| Cc1cc(CN(C)C(=O)c2occc2C)no1 | -13% | 1.4 |
| O=C(O)c1cc(-c2ccccc2)nc(Nc2nc3ccccc3s2)n1 | -43% | 5.02 |
| CCOC(=O)c1cc(-c2cccc(NC(=O)c3ccc4ccccc4n3)c2)n(-c2ccccc2C)n1 | -13% | 1.96 |
| CCOCCN(C)Cc1snnc1C | -9% | 1.07 |
| CC1CCCN(S(=O)(=O)NCC2CN(C(=O)c3ccccc3)C3CCN2C3)C1 (stereo not drawn) | -15% | 1.73 |
| CC[C@H](C)[C@H](N)C(=O)NCc1noc(C(N)=O)n1 | -10% | 1.03 |
| Cc1cnc(NCc2csc(CNC(=O)c3ccccc3)n2)nc1 | 4% | -0.43 |
| COc1ccccc1-c1nc2ccc(-c3cc(C)c(OC)c(C)c3)cc2o1 | -5% | 0.89 |
| C[C@@H](C(=O)N1CCc2onc(-c3cccc4ccccc34)c2C1)n1ccnc1 | -6% | 0.71 |
| CN(C)C[C@]12CCN(S(=O)(=O)c3ccc4c(c3)CCC4)C[C@H]1CN(C(=O)N(C)C)C2 | 8% | -1.5 |
| Cc1cnn(C2CCN(S(=O)(=O)C3(C)CC3)CC2)c1 | -18% | 3.19 |
| CC(OC1CCCCCC1)C(=O)N[C@H](CO)C(C)C (stereo partly drawn) | -5% | 0.6 |
| Nc1ccccc1OCCCc1ccccc1 | -14% | 2.31 |
| COc1ccc(-c2nc(-c3cccc(-c4nnc(N)o4)c3)sc2C)c(OC)c1 | 37% | -1.16 |
| C[C@H](O)c1nnnn1Cc1sc2ccccc2c1Cl | 6% | -0.8 |
| Cc1ccc2c(c1)c(=O)c(C(=O)N(CCOc1ccccc1)C[C@H]1CCCO1)cn2C | -10% | 1.36 |
| CCn1cc(C2CCN(C(=O)NCc3ccncc3C)CC2)cn1 | -2% | 0.3 |

| SMILES | % Inhibition | Z score |
| --- | --- | --- |
| O=S(=O)(NCC[C@H](O)c1ccoc1)C1CC1 | -12% | 1.5 |
| COc1cc(-c2noc([C@H]3CCCOCC3)n2)ncn1 | -1% | 0.09 |
| CN(Cc1ccccc1)C(=O)C1CC(=O)CC1C(=O)N(C)Cc1ccccc1 (stereo not drawn) | -1% | 0.09 |
| O=C(CCc1ccc(S(=O)(=O)N2CCCC2)cc1)Nc1cccc(S(=O)(=O)N2CCCC2)c1 | -14% | 2.02 |
| Cc1occc1C(=O)NC[C@H]1CCS(=O)(=O)C1 | -9% | 1.4 |
| O=S(=O)(Nc1cc(-n2nnnc2C2CC2)ccc1F)c1ccc(C2CCCCC2)cc1 | -5% | 0.65 |
| Cc1cc(NC(=O)Cc2c(C)nn(C)c2C)no1 | 0% | 0.07 |
| CCCc1nccn1-c1cnn2cccnc12 | 13% | -1.75 |
| O=C(COc1ccc2ccccc2c1)Nc1ccc2nccnc2c1 | -8% | 1 |
| Cc1ccccc1Cn1cccc1CNS(=O)(=O)c1ccc(C2CCCCC2)cc1 | -8% | 0.8 |
| Cc1ccc([C@H](C(=O)O)N2CCN(c3cnccn3)CC2)c(C)c1 | -4% | 0.53 |
| COc1ccccc1N1CCN(C(=O)Nc2ccc(N3CCOCC3)cc2C)CC1 | 0% | 0.05 |
| CS(=O)(=O)N1C2CCC1CC(NC(=O)c1cc(Br)ccc1Cl)C2 (stereo not drawn) | -22% | 3.76 |
| COc1ccc2c(=O)c(C#N)c[nH]c2c1 | -2% | 0.18 |
| O=C(C1COc2ccccc2C1)N1CCC(c2cccs2)S(=O)(=O)CC1 (stereo not drawn) | -5% | 0.79 |
| O=C(NC1CCCCC1)c1ccc(Cl)c(NC(=O)C2CCCCC2)c1 | -9% | 1 |
| CC(C)Oc1ccc(C(=O)NC[C@H]2CCCN2c2ncccn2)cc1 | 5% | -0.56 |
| CNC(=O)CN(C)CC=Cc1ccccc1 | -1% | 0.2 |
| COCCNC(=O)[C@@H](C)[C@@H]1CC[C@@]2(C)CC[C@H](NC(=O)C3CCCCC3)[C@@H](C)[C@@H]2[C@H]1O | -8% | 0.97 |
| CS(=O)(=O)N1CCC[C@H](Cn2nnnc2C=Cc2ccccc2)C1 | 34% | -0.7 |
| O=C(C1CCCC1)N1CC[C@@]2(O)CCN(Cc3nc(C(F)(F)F)no3)C[C@H]2C1 | 10% | -1.32 |

| SMILES | % Inhibition | Z score |
| --- | --- | --- |
| C[C@@H](C1CC1)N(CCC#N)Cc1ccc2ccccc2n1 | -7% | 1.17 |
| COc1ccc(CCC(=O)N2CC[C@H](Oc3ncccn3)C2)cc1 | -9% | 1.23 |
| O=C(Nc1cccs1)N(CC(F)(F)F)C1CCOCC1 | -21% | 2.33 |
| CC(C)(O)CCc1ccc(C(=O)N2C[C@@H]3C[C@H]2CN3Cc2ccccc2)cc1 | -3% | 0.54 |
| Cc1nn2c(c1-c1ccc(Cl)c(S(=O)(=O)NCCC(C)C)c1)NC(=O)CCC2=O | 1% | -0.11 |
| CCN1CC[C@@]2(CCC1=O)CN(C(=O)Nc1c(C)cccc1C)CCN2C | -7% | 1.06 |
| O=C(Nc1ccc(O)c(Cl)c1)c1ccnnc1 | -5% | 0.89 |
| Cc1ccc(=O)n(CCC(=O)Nc2cc(F)cc(F)c2)n1 | -5% | 0.94 |
| Cc1cc(C(=O)N2CCN(c3ccc(C(F)(F)F)cc3)CC2)cc(O)n1 | 9% | -1.04 |
| CC(C)c1cnc(CNc2nnc([C@@H]3Cc4ccccc4O3)o2)s1 | 30% | -3.43 |
| Cc1c(C(=O)N[C@@H]2C[C@H]3OCC[C@@H]23)[nH]c2c(F)cccc12 | -12% | 2.45 |
| Cc1cccc(S(=O)(=O)Nc2ccccc2N2CCCN(Cc3ccc(F)cc3)C2=O)c1 | -7% | 1.08 |
| CCN1CCN(c2c(CN(CCC(C)C)S(=O)(=O)c3ccc(C)cc3)c(C)nn2-c2ccccc2)CC1 | -15% | 2.45 |
| C=CCn1cc(CN(C)CC[C@H]2CCCCO2)cn1 | -7% | 0.97 |
| Cc1n[nH]c(C)c1CCCN(C)C1CCN(c2cccc(F)c2)CC1 | 6% | -0.79 |
| COc1ccc(CC(=O)NCc2nccc(N3CCCCC3)n2)cc1 | -7% | 1.14 |
| O=C(c1cccs1)N1CC[C@@]2(CCCN(Cc3ccc(F)c(F)c3)C2=O)C1 | -2% | 0.32 |
| Cn1ncnc1CCNC(=O)c1cnc(-c2cccnc2)nc1 | 1% | -0.18 |
| CC(C)c1cc(C(=O)N2CCC[C@@H]2CO)cc(O)n1 | 0% | 0.07 |
| CC(C)Cc1cc(C(=O)N[C@@H](C)c2nncn2C2CCCC2)on1 | -5% | 0.98 |
| O=C1CC[C@H](NC(=O)c2cc(-c3cccc(C(F)(F)F)c3)ccn2)CCN1 | -10% | 1.89 |
